# Laboratory results as given in the supplement of paper PMC8792480.
# The list shows a part of the results. Repeats are few or missing, and single values can be far off.
# Tested on: A549
# Test: cell-surface PD-L1 MFI ratio relative to cisplatin alone (isotype-subtracted); higher = higher PD-L1 surface expression
# Settings: inducer: cisplatin 4 uM; 10 µM; 24 h
# Protocol: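 A549 and H460 NSCLC cells were treated with each library drug at 10 uM, then with radiation (8 Gy) or cisplatin (4 uM), and incubated for 24 h. Cell-surface PD-L1 was measured by flow cytometry as an MFI ratio: (MFI drug+inducer - MFI isotype)/(MFI inducer alone - MFI isotype). Hits were defined as ratio < 0.75.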
row,Compound,cell-surface PD-L1 MFI ratio
1,COc1cc2ncnc(Nc3ccc(F)c(Cl)c3)c2cc1OCCCN1CCOCC1 [Gefitinib],inactive: 1
2,N#CC1(c2ccc(NC(=O)c3cccnc3NCc3ccncc3)cc2)CCCC1 [Apatinib],active: 0.739
3,O=c1cc(N2CCOCC2)oc2c(-c3cccc4c3sc3ccccc34)cccc12,active: 0.392
4,COc1ccc(CCc2nc3cc(-c4c(C)noc4C)ccc3n2C[C@H](C)N2CCOCC2)cc1Cl,inactive: 0.918
5,CC(C)c1c(C(=O)Nc2ccccc2)c(-c2ccccc2)c(-c2ccc(F)cc2)n1CC[C@@H](O)C[C@@H](O)CC(=O)O [Atorvastatin],active: 0.497
6,CC(C)Oc1ccc(C(=O)N[C@H](CNC(=O)CN(C)C)Cc2ccc(-c3cn4cccc([C@H](C)O)c4n3)cc2)cc1Cl,inactive: 0.888
7,CS(=O)(=O)c1ccc(C(=O)Nc2ccc(Cl)c(-c3ccccn3)c2)c(Cl)c1 [Vismodegib (GDC-0449)],active: 0.526
8,COc1cc2nc(N3CCCC3)nc(NCCCCCN3CCCC3)c2cc1OC,active: 0.738
9,COc1ccc(N2C(=O)/C(=C\c3ccc([N+](=O)[O-])s3)SC2=S)cc1,inactive: 4.08
10,CC[C@@H](N)CNc1ccnc(-c2cc(-c3cnn(C)c3)ccc2O)n1,inactive: 0.862
11,Cc1nc(-c2cn3c(n2)-c2ccc(-c4cnn(C(C)(C)C(N)=O)c4)cc2OCC3)n(C(C)C)n1 [Taselisib (GDC 0032)],inactive: 0.838
12,CCn1c2ccccc2c2cc(-n3nncc3-c3ccccc3)ccc21,inactive: 2.38
13,CC(C)CCN1c2nc(Nc3cc(F)c(O)c(F)c3)ncc2N(C)C(=O)C1C (stereo not given),inactive: 20.1
14,Nc1ncn([C@@H]2O[C@H](CO)[C@@H](O)[C@H]2O)c(=O)n1 [Azacitidine],inactive: 0.924
15,COCC[n+]1c2c(n(Cc3cnccn3)c1C)C(=O)c1ccccc1C2=O [YM155 (Sepantronium Bromide)],inactive: 2.11
16,Oc1c2ccccc2c2c3c(cccc13)N=N2,inactive: 0.989
17,O=C([C@@H](Cc1cccc(C(F)(F)F)c1)NS(=O)(=O)c1cc(F)c2c(c1)CCNC2)N1CCCC1,active: 0.429
18,CN(CC(=O)N(Cc1ccc(C2CCCCC2)cc1)c1ccc(C(=O)O)cc1)S(=O)(=O)c1c(F)c(F)c(F)c(F)c1F,inactive: 0.868
19,CN1CCN(Cc2ccc(-c3cnc4[nH]cc(-c5ccc6[nH]ccc6c5)c4c3)cc2)CC1,inactive: 1.31
20,CCN(CC)CCNC(=O)c1c(C)[nH]c(/C=C2\C(=O)Nc3ccc(F)cc32)c1C [Sunitinib],inactive: 32.6

row,Compound,cell-surface PD-L1 MFI ratio
1,COc1cc(Nc2ncc3c(n2)-c2ccc(Cl)cc2C(c2c(F)cccc2OC)=NC3)ccc1C(=O)O [Alisertib (MLN8237)],inactive: 0.877
2,C[C@@H]1CCN(C(=O)CC#N)C[C@@H]1N(C)c1ncnc2[nH]ccc12,inactive: 1.13
3,CC1(C)CCC(c2ccc(Cl)cc2)=C(CN2CCN(c3ccc(C(=O)NS(=O)(=O)c4ccc(N[C@H](CCN5CCOCC5)CSc5ccccc5)c(S(=O)(=O)C(F)(F)F)c4)cc3)CC2)C1 [Navitoclax (ABT-263)],inactive: 0.839
4,CNC(=O)c1ccccc1Sc1ccc2c(/C=C/c3ccccn3)n[nH]c2c1 [Axitinib],inactive: 1.03
5,CN1CCN(c2ccc(-c3cccc(CN4CCOCC4)c3)cc2NC(=O)c2c[nH]c(=O)cc2C(F)(F)F)CC1,inactive: 0.773
6,CN(C)Cc1cccc(N=C(c2ccccc2)c2c(O)[nH]c3cc(C(=O)N(C)C)ccc23)c1,inactive: 1.21
7,COc1ccc(S(=O)(=O)N(CCO)c2ccccc2CN(C)C/C=C/c2ccc(Cl)cc2)cc1 [KN-93 Phosphate],inactive: 1.09
8,CN1c2ccccc2C(=O)Nc2cnc(Nc3ccc(N4CCC(O)CC4)cc3)nc21,inactive: 1.15
9,Cc1ccc(-c2cc(C(F)(F)F)nn2-c2ccc(S(N)(=O)=O)cc2)cc1 [Celecoxib],active: 0.591
10,CC(=O)O[C@H]1C(=O)[C@@]2(C)[C@H]([C@H](OC(=O)c3ccccc3)[C@]3(O)C[C@H](OC(=O)[C@H](O)[C@@H](NC(=O)c4ccccc4)c4ccccc4)C(C)=C1C3(C)C)[C@]1(OC(C)=O)CO[C@@H]1C[C@@H]2O [Paclitaxel],inactive: 0.995
11,Cc1nc(NC(=O)N2CCC[C@H]2C(N)=O)sc1-c1ccnc(C(C)(C)C(F)(F)F)c1 [Alpelisib (BYL719)],active: 0.462
12,CNc1nc(-c2ccc3c(N)n[nH]c3c2)cc(N2C[C@@H](C(=O)NC3CCCCC3)CC[C@H]2C)n1,inactive: 1.07
13,O=C(O)C(Cc1ccccc1[N+](=O)[O-])=NNc1nc(-c2ccc(Cl)c(Cl)c2)cs1 (mixture of isomers),inactive: 1.68
14,C=CC(=O)N1CCC[C@@H](n2nc(-c3ccc(Oc4ccccc4)cc3)c3c(N)ncnc32)C1 [Ibrutinib],inactive: 0.829
15,CC(C)N1CCN(Cc2cnc(-c3cc(-c4cccc5[nH]ccc45)cc4[nH]ncc34)o2)CC1,active: 0.686
16,O=C(O)CCCc1cc2cc(Cl)ccc2n1S(=O)(=O)c1ccc2ncsc2c1 [Lanifibranor(IVA-337)],inactive: 0.798
17,NC(=O)c1cnc(NCCc2ccc(O)c(Cl)c2)nc1NCc1ccccc1,inactive: 1.33
18,COc1ccc(-c2nc(-c3cc(C(F)(F)F)cc(C(F)(F)F)c3)n(Cc3ccc(C(N)=O)cc3)c2-c2ccc(OC)cc2)cc1 [Apoptozole],active: 0.348
19,CCn1cc(-c2cccc(C(F)(F)F)c2)c2sc(C(=N)NC3CCS(=O)(=O)CC3)cc2c1=O,active: 0.476
20,O=C(Nc1ccc2[nH]nc(-c3ccncc3)c2c1)[C@@H]1CCN(CC(=O)N2CCN(c3ccc(-c4ncccn4)cc3)CC2)C1,inactive: 0.944
